# Experimental data taken from PubChem BioAssay AID1347073 (National Center for Advancing Translational Sciences (NCATS), 2019).
# Among all 45,000 compounds or so, about 200 (0.44%) were called active. Inconclusive results (about 7%) are left out. Calls come from the whole dose curve; as a rule, active = well fitted activation curve with a large enough effect; inconclusive = small, poorly fitted or top-dose-only effect; inactive = no such curve, though single readings can be large or run the other way. This is one part of the list.
# Experiment: qHTS of TDP-43 Inhibitors: NCGC Sytravon Library Screen; note: 0% is about no effect; nearly all actives have a fitted effect of over 55% in size
# Conditions: yeast TDP-43 toxicity rescue, BacTiter-Glo growth, 24 h; series mostly up to 46.1 µM; growth rescue (activation): at the top concentration
# Method in brief: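 TDP-43-expressing yeast, pregrown in raffinose, seeded at OD600 0.02 in galactose medium with compound for 24 hr at 30 deg C. Growth read by BacTiter-Glo luminescence, so rescue of toxicity appears as activation.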
row,SMILES,growth rescue (activation)
1,Cc1ccc(Cl)cc1N(CC(=O)NC(C)c1ccccc1)S(C)(=O)=O (stereo not drawn),inactive: 13.3%
2,CC(C)Oc1ccccc1NC(=O)CSc1nccn1C,inactive: -2.13%
3,Cc1ccc(-n2cc(CNCCc3ncc(C)[nH]3)c(-c3ccc(F)cc3)n2)cc1,inactive: -5.04%
4,O=S(=O)(Cc1c(F)cccc1Cl)c1ncn[nH]1,inactive: -2.33%
5,CCOCCCNS(=O)(=O)c1ccc(NC(=O)C2CC(=O)N(c3ccc(C)cc3)C2)cc1 (stereo not drawn),inactive: 14.4%
6,COc1ccc(CCNC(=O)c2ccc3c(c2)OCCO3)cc1,inactive: 5.12%
7,O=C(CSc1ccc(C(F)(F)F)cc1[N+](=O)[O-])Nc1ccc2ccccc2c1,inactive: 19%
8,CCOc1ccccc1OCC(=O)NCCc1ccc(S(N)(=O)=O)cc1,inactive: -2.22%
9,Cc1cc(C)cc(C(=O)Nc2nc3ccccc3[nH]2)c1,inactive: 4.72%
10,CN1\C(=C/C=C/C=C/C=[N+](C)C)C(C)(C)c2ccccc21,inactive: -31.5%
11,CCOc1ccc(C)cc1S(=O)(=O)n1nc(C)cc1C,inactive: 27.6%
12,O=C(NCc1ccco1)c1ccc2c(c1)N(Cc1ccc(F)cc1)C(=O)c1ccccc1S2(=O)=O,inactive: 10.1%
13,Cc1nn(C)c(C)c1NC(=O)COc1ccc(F)cc1Br,inactive: 10.5%
14,CC(C)Oc1cc(F)ccc1-c1cc(C(=O)Nc2ccc(F)cc2)[nH]n1,inactive: 7.55%
15,COc1cc(/C=N/NC(=S)Nc2cccc(C(=O)O)c2)ccc1O,inactive: 6.17%
16,CCN(CC)c1ccc(/C=C/C(=O)C2C(=O)C=C(C)OC2=O)cc1 (stereo not drawn),inactive: -5.26%
17,O=S(=O)(Nc1ccccc1O)c1ccc(-c2ccccc2)cc1,inactive: 10.3%
18,COc1ccc(CCNC(=S)NC2CCN(Cc3ccccc3)CC2)cc1OC,inactive: -0.0932%
19,CSc1ncc(C(=O)Nc2ccc(C)cc2C)c(C)n1,inactive: -16.1%
20,CC(=O)NN1C(=O)/C(=C\c2ccc(O)cc2)SC1=S,inactive: -32.8%
21,O=C(Oc1ccc2ccc(=O)oc2c1)c1cccs1,inactive: -0.943%
22,COc1ccc(/C=N/OCC(=O)N=Nc2c(O)[nH]c3ccc(Br)cc23)cc1OC,inactive: 9.32%
23,COc1ccc(CC(=O)N/N=C/C=C/c2cccc([N+](=O)[O-])c2)cc1OC,inactive: 13.3%
24,Cc1ccc(C(O)c2ncc(-c3ccc(F)cc3)[nH]2)c(C)c1 (stereo not drawn),inactive: 15.5%
25,CC(Oc1cccnc1[N+](=O)[O-])C(=O)N1CCc2ccccc21 (stereo not drawn),inactive: -6.76%
26,CC(=O)NCCNc1nc2cc(-c3cnn(CCC(C)C)c3)sc2c(=O)n1C,inactive: 10.9%
27,O=C(NCc1cccnc1)c1ccc(Cl)c(S(=O)(=O)N2CCOCC2)c1,inactive: 12.4%

row,SMILES,growth rescue (activation)
1,FC(F)(F)c1cccc(Cc2noc(CN3CCCCC3c3ccccn3)n2)c1 (stereo not drawn),inactive: 9.67%
2,O=C(NN1CCOCC1)c1ccccc1Br,inactive: 3.36%
3,COc1ccc(NC(C)c2ccccc2)cc1 (stereo not drawn),inactive: 0.904%
4,COC(=O)c1sc(S(=O)(=O)N2CCN(CCO)CC2)c(C(=O)OC)c1C,inactive: -0.318%
5,Cn1c(=O)c2cc(NC(=S)NC3CC3)ccc2n1Cc1ccc(F)cc1,inactive: 6.87%
6,O=C(Nc1ccc(N2CCCC2)cc1)C(Cl)c1ccccc1 (stereo not drawn),inactive: 5.75%
7,O=C(NN1CCOCC1)c1cc(S(=O)(=O)Nc2cccc(C(F)(F)F)c2)ccc1Cl,inactive: -3.91%
8,CN1C(=O)/C(=C/c2ccc3c(c2)OCO3)N=C1c1ccccc1,inactive: 11%
9,C=CCn1c(SCC(=O)NC2CCCC2)nnc1-c1ccccn1,inactive: -13.9%
10,O=C(N/N=C/c1ccccc1F)NC1CCCCC1,inactive: 15.9%
11,CCN1CCN(CC(=O)N/N=C/c2ccc(F)cc2F)CC1,inactive: 9.23%
12,CC1=CC(C)(C)N(C(=O)CSc2nnc(N)s2)c2ccccc21,inactive: -1.19%
13,Cc1ccc2cc(CCNS(=O)(=O)c3ccc(Cl)cc3)c(=O)[nH]c2c1C,inactive: 7.83%
14,CCC(Oc1ccccc1)C(=O)Nc1ccc(S(=O)(=O)Nc2cc(C)on2)cc1 (stereo not drawn),inactive: 2.23%
15,Cc1cc(=O)[nH]c(SCC(=O)Nc2nc(-c3ccccc3)c(-c3ccccc3)o2)n1,inactive: 10.3%
16,O=C1OC(c2ccccc2)/C(=C(/O)c2ccccc2)C1=O (stereo not drawn),inactive: -33.3%
17,Nc1ccc(Cl)cc1C(=O)OCC(=O)NC1CCS(=O)(=O)C1 (stereo not drawn),inactive: -8.94%
18,Cc1ccc(S(=O)(=O)c2ccc(-n3nc(C)cc3N)cc2)cc1,inactive: 1.67%
19,OCCN1CCN(c2nccn3ccnc23)CC1,inactive: 5.53%
20,O=C(Nc1ccc(Br)cn1)c1ccc([N+](=O)[O-])cc1Cl,inactive: 23.4%
21,COc1ccc(OC)c(Cc2nnc(CCC(=O)NCc3nc4ccccc4s3)o2)c1,inactive: 3.99%
22,COCCNCCOc1ccc(C)cc1[N+](=O)[O-],inactive: 8.54%
23,CC1CCN(C(=O)COC(=O)c2ccccc2C(=O)c2ccccc2)CC1,inactive: 29%
24,O=C(NCCCNC(=O)c1cc(Cl)ccc1Cl)c1cnccn1,inactive: 9.39%
25,C/C(N)=C(/C#N)C(=O)COC(=O)c1cc(-c2ccc(C)cc2)nc2ccccc12,inactive: 12.1%
26,CC(C)CC(OC(=O)c1ccco1)C(=O)NC1CCCCC1 (stereo not drawn),inactive: 22%
